The source gives no read counts; variants with many changes may rest on few reads.
B1: LINE1-full (parent)
chain: UACGUAGGUGGUUUUCCCCUGAUAGUGCUAAGGGGGCCUGGAAGUUUGGACUGGGCAGAGCUCAACACAGCGUGGCAAAGUGGCUGUGGCUAGACUGCCUCUCUGGAUUCCUCGUCACUCAGCAGGGCAUCUCUGAGAGAAAUGCC

Variants of: B1
Assay: self-cleavage, relative activity (ratio to wild type); higher = more cleavage; in vitro, sequencing; the parent is a self-cleaving ribozyme

Variant | self-cleavage
A31G U112G C113U A138G | 1.8
A2G A78G U87A U96C A124G | 0
C16A A43G U112C | 0.84
G55C U73C U87G U132C A138U | 0.09
G75A A78G C101G U108C | 0.89
U9C U45C A121U | 2.22
G70C A92G U102C A129U | 0.08
U45A C90U U115C U134C A140G | 0.01
C3A A77C U130A | 0.34
C38A A43G A65G U130A A140G | 0.07
U13C A57G A107G | 0.71
C37U U85C U102C U112C | 0.07
U12C U104A U112C | 0.8
U45G G89U A142G | 0.03
U1C U5C A138U | 1.25
U14C C18A U85C | 0.17
A64G U108C G125A | 0.23
A30G U45C U109C | 2.04
A92G A129G A141G | 0.03
A64U A77G U102A | 0.57
A2G C16U A59U A141G | 0.95
U85C G114A C123U U130C | 0.1
U13A U20C A43U | 1.34
U47A A79G C103A | 1.84

Variant | self-cleavage
A31G A57U U115C | 0
U14C G33U G127A | 1.32
U9C U12A A78G U85C U134A | 0.1
U29A U96A A124C | 0.04
A57G U91A A92G U96A | 0
U1C A6U G70A G88A U132C | 0.06
U9C A78G A107G | 1.67
U12C A43G A117G | 0.3
U26C C61U A141G | 0.11
A57G C68U U73A U109C A124G A129U A140G | 0.04
U13C A69G A92U U134C | 0.26
A42U U91C U112C | 0.36
U5C U20A U62A | 0.22
U9C A79G U132C | 1.12
G35A U62A A77G U81C | 0.04
A6G A92G A136U | 0
C18U A92U U143C | 0.72
U5C A42U C90A A136G | 0.09
U46C C63U G93U A138G | 0.04
U9C G33C G36A A42G U112A | 0.35
A6U A67G U73A G122U | 0.61
U62A U73C U87C A140G | 0
U14C A31C C113A A141G | 0.55
A42G A78G A117U A141U | 2.53

Variant | self-cleavage
U14C A31U A42G | 1.1
A30G U52C A59U | 0.54
U15C C19U U96C | 0.24
C84U U85C U102C | 0.1
A43G G80U U81A A129U | 1.95
U46A U85A U102G | 0.08
U5C A59U A142C | 0
A69U A79C A136G | 0
U14A U39A U45C G114A | 1.29
A22G U87A C99U C131U | 0.1
U9C U14A G40A A141U A142G | 0.35
G60A U102C C131A A140G | 0.04
U91A A121G G126A C146U | 0.79
A67U G105A U115C | 1.02
U14C A92G U109C | 0.14
G36A U102C A121U | 1.35
U15A U112C U132C | 1.13
U13C A65U U130A | 0.16
U1G A140G U143C | 0.54
U96C U100A U130C | 0.57
U14C A31U U73C U119A A138G | 2.3
A2C A59G U112C A129G | 0
U13C G93U A117C | 0.08
U39A A69G U134C | 1.4

Variant | self-cleavage
A31G U39C A78G | 1.06
G21U A57U U134C | 0.15
U20A A43U U52A U130C | 1.21
U52A G58A A124C | 0.02
U1C U13A U26A U100C U130C U132A | 0
U26A U108A U119C | 0.28
A67G U91C A129U A138G | 0
U9A U39A U73A C120U | 1.23
U9A U45C A69U A136U | 0.04
U12C U14C A124U | 1.37
U12C U20A U104G A138G | 1.2
G7A A42G A57U A65U U143C | 0.04
A43G U47A U73G A78G A117G | 0.31
G27U A50U A65U U73C | 0.03
U47A A57U U87C | 0
G11A A42G U47C A77G | 2.23
A65C A107G U119C U143C | 0
A69G U87C G97A A117G | 0
A22U U85C A141G | 0.11
U9A G75A U132C | 1.01
U62C A69G A79G G93A G126A U143C | 0.01
A50U U112C A138G A141G U143A | 1.17
U20C U62C A136G | 0.11
A22G U26A A140G | 0.88

Variant | self-cleavage
A2G U26A G34C | 0.78
U91C U102C A117U | 1.48
A22U U23C A79G A92G | 0
U14A U39A G60A A94G | 0.42
U12C U14C U143C | 1.07
C19A U96C U112A | 0.08
U5C A67U A121G | 0
U14C A79G A92G | 0
G89A U91C U143C | 0.04
U15C A65G U73A | 0.05
U23C A79U U96A U102C | 0.39
U39A A65C A78G U119A | 0.03
G32C A50U U112A | 1.01
G34U A43G U109C | 1.66
U9A U130A U132C | 1.12
U12C C38U U112A A138G | 1.53
A78U A117G A129U | 2.5
U39A U85A C90U U132C | 0.08
A43G A124U G144A | 1.02
U96C G127A A142G | 0.04
A22U A43G C51U C71U U100C A121G | 1.6
G58U A94U G135U | 0.03
U62C U87G U112A | 0.03
G35A U39C A117G G125U | 1.12

Variant | self-cleavage
G21A A42U U112A | 1.12
U47A A79G A142G | 1.12
U20A U91C A140G | 0.56
U1C U20C A43G | 0.73
U9C U29C A43G U46C | 0.35
U9G G36C A141G | 0.54
U13C U115A A141G | 1.48
U13C U14A A24G U73A U115C A117U U132C | 1.05
U20A U52C C110U | 1.29
A79G U100C U132C U143C | 1.84
A57U A78G U134C | 0.06
U46C A92G U102C C133A | 0
G36A G60U U85A C113U A140G | 0.01
U12C U15C U119A | 1.51
C19U U46G A141U A142G | 1.26
A42G U100C A129G | 1
A77U G83A C98U A141G | 0.17
U20C G53A U134C | 1.71
U12G A50G U96A | 0
U26A A30U U96A | 0.09
U9C U85A U109C U134C | 0.05
C19U U20C U91C | 0.33
U9C U62C A136G | 0.05
A2G A67C U119C C128G U134C | 0

Variant | self-cleavage
U26C U115A G137A | 2.45
G7A G36A A50G C51G A117G A140G | 0.18
U5C A24G U130C | 1.84
U5A A69G G83A | 0.15
U12C C17U A24G U39C G122A | 0.8
U15C U104C A117U A142G | 2.24
U45G A57G U102C | 0.51
U12C C17U U81C | 0.6
U15C U45C C68U U96C U100C | 0
C16A U52A G53U | 1.04
U46A U102A U132C | 1.37
C71U U87A U91C | 0.02
U1C A117U U132C | 0.98
U20C A31U A77G U108C C110U | 2.87
G11A U13A A124G | 0.53
G53A A65G U85A A92G | 0.03
U15C A43G U119C | 1.88
C19U G40A U62C G125A | 0.05
U9C U29C U87A A141G | 0.17
U115C U130C A142G | 1.21
U5C U15A A78U | 0.96
A42U A43C A67U A69G U119C A121U | 0
U14C A64U U119C | 0.7
